The source of these data is patent US11180452B2, “Methods and compositions for selectively inhibiting pathogenic microbes” (priority 2019, dated 2021).

This assay relates to Burkholderia cenocepacia NRRL: B-59561. In words: microbe, parasite or virus in culture. The class given is cell-based.

In brackets after ≈: the same amount, converted by molar mass.

As to `Oc1ccc(Sc2c[nH]c3ccccc23)cc1` [Compound 156I, 4-((1H-indol-3-yl)thio)phenol], the MBC was over 150 µg/mL and the MIC was over 50 µg/mL.

Turning to `COc1ccc(Sc2c[nH]c3ccccc23)cc1` [Compound 156O, 3-((4-methoxyphenyl)thio)-1H-indole], the MIC is over 50 µg/mL.

On to `Brc1ccc(Sc2[nH]c3ccccc3c2Sc2ccc(Br)cc2)cc1` [Compound 156P, 2,3-bis((4-bromophenyl)thio)-1H-indole], for which the MIC is over 50 µg/mL.

Compound `Fc1ccc2c(Sc3ccc(Br)cc3)c[nH]c2c1` [Compound 172A, 3-((4-bromophenyl)thio)-6-fluoro-1H-indole] came in with an MIC of over 50 µg/mL.

Compound `Cc1c(Sc2ccc(Br)cc2)[nH]c2ccccc12` [Compound 172B, 2-((4-bromophenyl)thio)-3-methyl-1H-indole] displayed an MIC of over 50 µg/mL.

Regarding `Cc1[nH]c2ccccc2c1Sc1ccc(Br)cc1` [Compound 172C, 3-((4-bromophenyl)thio)-2-methyl-1H-indole], the MIC is over 50 µg/mL.

With `Brc1ccc(Sc2c[nH]c3ccc(Br)cc23)cc1` [Compound 172D, 5-bromo-3-((4-bromophenyl)thio)-1H-indole], the MBC was over 150 µg/mL and the MIC was 100 µg/mL (≈ 261 µM).

`COc1ccc2[nH]cc(Sc3ccc(Br)cc3)c2c1` [Compound 172E, 3-((4-bromophenyl)thio)-5-methoxy-1H-indole] displayed an MIC of over 50 µg/mL.

Consider `COC(=O)c1ccc2[nH]cc(Sc3ccc(Br)cc3)c2c1` [Compound 172G, methyl 3-((4-bromophenyl)thio)-1H-indole-5-carboxylate], for which the MIC is over 45 µg/mL.

For `[O-][S+](c1ccc(Br)cc1)c1c[nH]c2ccc(Br)cc12` (stereo not shown) [Compound 172I, 5-bromo-3-((4-bromophenyl)sulfinyl)-1H-indole], the MIC was over 40 µg/mL.

The compound `O=S(=O)(c1ccc(Br)cc1)c1c[nH]c2ccc(Br)cc12` [Compound 172J, 5-bromo-3-((4-bromophenyl)sulfonyl)-1H-indole] displayed an MIC of over 50 µg/mL.

`Brc1ccc(Sc2c[nH]c3cc(Br)ccc23)cc1` [Compound 174A, 6-bromo-3-((4-bromophenyl)thio)-1H-indole] returned an MIC of over 50 µg/mL.

For `Brc1ccc2[nH]cc(Sc3ccccc3)c2c1` [Compound 174AA, 5-bromo-3-(phenylthio)-1H-indole], the MIC is over 50 µg/mL.

As for `Brc1ccc(Sc2c[nH]c3cc(Br)c(Br)cc23)cc1` [Compound 174AB, 5,6-dibromo-3-((4-bromophenyl)thio)-1H-indole], the MIC is over 50 µg/mL.

Take `Brc1ccc(Sc2c[nH]c3c(Br)cc(Br)cc23)cc1` [Compound 174AC, 5,7-dibromo-3-((4-bromophenyl)thio)-1H-indole]: the MIC is over 50 µg/mL.

`Clc1c(Cl)c(Cl)c(Sc2c[nH]c3ccc(Br)cc23)c(Cl)c1Cl` [Compound 174AD, 5-bromo-3-((perchlorophenyl)thio)-1H-indole]: the MIC was over 50 µg/mL.

With `Brc1ccc(Sc2c[nH]c3cc(Br)cc(Br)c23)cc1` [Compound 174AE, 4,6-dibromo-3-((4-bromophenyl)thio)-1H-indole], the MIC is over 50 µg/mL.

The compound `Clc1cc2[nH]cc(Sc3ccc(Br)cc3)c2cc1Br` [Compound 174AF, 5-bromo-3-((4-bromophenyl)thio)-6-chloro-1H-indole] registered an MIC of over 50 µg/mL.

In turn, `Clc1cc(Cl)c(Sc2c[nH]c3ccc(Br)cc23)c(Cl)c1` [Compound 174AG, 5-bromo-3-((2,4,6-trichlorophenyl)thio)-1H-indole] registered an MIC of over 50 µg/mL.

The compound `Brc1ccc2[nH]cc(Sc3cc(Br)c(Br)c(Br)c3)c2c1` [Compound 174AH, 5-bromo-3-((3,4,5-tribromophenyl)thio)-1H-indole] had an MIC of over 50 µg/mL.

For the compound `Clc1ccccc1Sc1c[nH]c2ccc(Br)cc12` [Compound 174AJ, 5-bromo-3-((2-chlorophenyl)thio)-1H-indole], the MIC is over 50 µg/mL.

In turn, `Cc1[nH]c2ccc(O)cc2c1Sc1ccccc1N` [Compound 174AK, 3-((2-aminophenyl)thio)-2-methyl-1H-indol-5-ol] showed an MIC of over 50 µg/mL.

`Brc1ccc2[nH]cc(Sc3c[nH]c4ccccc34)c2c1` [Compound 174AL, 3-((1H-indol-3-yl)thio)-5-bromo-1H-indole] came in with an MIC of over 50 µg/mL.

`Clc1ccc2[nH]cc(Sc3ccc(Br)cc3)c2c1` [Compound 174C, 3-((4-bromophenyl)thio)-5-chloro-1H-indole] displayed an MIC of over 50 µg/mL.

Turning to `Brc1ccc(Sc2c[nH]c3cccc(Br)c23)cc1` [Compound 174D, 4-bromo-3-((4-bromophenyl)thio)-1H-indole], the MIC was over 50 µg/mL.

In turn, `Fc1ccc2[nH]cc(Sc3ccc(Br)cc3)c2c1` [Compound 174E, 3-((4-bromophenyl)thio)-5-fluoro-1H-indole] yielded an MIC of over 50 µg/mL.

In turn, `Brc1ccc2[nH]cc(Sc3cccc4ccccc34)c2c1` [Compound 174G, 5-bromo-3-(naphthalen-1-ylthio)-1H-indole] yielded an MIC of over 50 µg/mL.

Take `Brc1ccc(Sc2c[nH]c3c(Br)cccc23)cc1` [Compound 174H, 7-bromo-3-((4-bromophenyl)thio)-1H-indole]: the MIC was over 50 µg/mL.

Regarding `Clc1ccc(Sc2c[nH]c3ccc(Br)cc23)cc1` [Compound 174J, 5-bromo-3-((4-chlorophenyl)thio)-1H-indole], the MIC was over 50 µg/mL.

For `Brc1ccc2[nH]cc(SCc3ccccc3)c2c1` [Compound 174K, 3-(benzylthio)-5-bromo-1H-indole], the MIC is over 50 µg/mL.

`Brc1ccc2[nH]cc(Sc3nc4ccccc4s3)c2c1` [Compound 174L, 2-((5-bromo-1H-indol-3-yl)thio)benzo[d]thiazole] came in with an MIC of over 50 µg/mL.

For `Nc1ccccc1Sc1c[nH]c2ccc(Br)cc12` [Compound 174M, 2-((5-bromo-1H-indol-3-yl)thio)aniline], the MBC is over 150 µg/mL and the MIC amounted to 150 µg/mL (≈ 470 µM).

With `Brc1cccc(Sc2c[nH]c3ccc(Br)cc23)c1` [Compound 174N, 5-bromo-3-((3-bromophenyl)thio)-1H-indole], the MBC was over 150 µg/mL.

Regarding `Brc1ccc(CSc2c[nH]c3ccc(Br)cc23)cc1` [Compound 174O, 5-bromo-3-((4-bromobenzyl)thio)-1H-indole], the MIC is over 50 µg/mL.

In the case of `Fc1ccc(Sc2c[nH]c3ccc(Br)cc23)cc1` [Compound 174P, 5-bromo-3-((4-fluorophenyl)thio)-1H-indole], the MIC was over 50 µg/mL.

`COc1ccc(Sc2c[nH]c3ccc(Br)cc23)cc1` [Compound 174Q, 5-bromo-3-((4-methoxyphenyl)thio)-1H-indole] had an MIC of over 50 µg/mL.

With `Brc1ccc2[nH]cc(Sc3ccc(-c4ccccc4)cc3)c2c1` [Compound 174R, 3-([1,1′-biphenyl]-4-ylthio)-5-bromo-1H-indole], the MIC was over 50 µg/mL.

Turning to `Brc1ccc2[nH]cc(Sc3ccc4ccccc4c3)c2c1` [Compound 174S, 5-bromo-3-(naphthalen-2-ylthio)-1H-indole], the MIC was over 50 µg/mL.

`Clc1cccc(Sc2c[nH]c3ccc(Br)cc23)c1Cl` [Compound 174T, 5-bromo-3-((2,3-dichlorophenyl)thio)-1H-indole] registered an MIC of over 50 µg/mL.

Take `Brc1ccc(Sc2c[nH]c3ccccc23)cc1` [Compound 174U, 3-((4-bromophenyl)thio)-1H-indole]: the MIC was over 50 µg/mL.

The compound `Clc1ccc(Sc2c[nH]c3ccc(Br)cc23)c(Cl)c1` [Compound 174V, 5-bromo-3-((2,4-dichlorophenyl)thio)-1H-indole] gave an MIC of over 50 µg/mL.

`Clc1ccc(Sc2c[nH]c3ccc(Br)cc23)cc1Cl` [Compound 174W, 5-bromo-3-((3,4-dichlorophenyl)thio)-1H-indole] gave an MIC of over 50 µg/mL.

`Nc1cc(Br)ccc1Sc1c[nH]c2ccc(Br)cc12` [Compound 174X, 5-bromo-2-((5-bromo-1H-indol-3-yl)thio)aniline] yielded an MIC of over 50 µg/mL.

`Nc1cccc(Sc2c[nH]c3ccc(Br)cc23)c1` [Compound 174Y, 3-((5-bromo-1H-indol-3-yl)thio)aniline] returned an MIC of over 50 µg/mL.

In turn, `Nc1ccc(Sc2c[nH]c3ccc(Br)cc23)cc1` [Compound 174Z, 4-((5-bromo-1H-indol-3-yl)thio)aniline] yielded an MIC of over 50 µg/mL.

In turn, `Oc1ccccc1Sc1c[nH]c2ccc(C(F)(F)F)cc12` [Compound 177A, 2-((5-(trifluoromethyl)-1H-indol-3-yl)thio)phenol] gave an MBC of over 50 µg/mL and an MIC of 25 µg/mL (≈ 80.8 µM).

For the compound `Oc1ccc(Sc2c[nH]c3ccc(C(F)(F)F)cc23)cc1` [Compound 177B, 4-((5-(trifluoromethyl)-1H-indol-3-yl)thio)phenol], the MBC is over 50 µg/mL and the MIC amounted to 25 µg/mL (≈ 80.8 µM).

Turning to `Nc1ccccc1Sc1c[nH]c2ccc(C(F)(F)F)cc12` [Compound 177C, 2-((5-(trifluoromethyl)-1H-indol-3-yl)thio)aniline], the MBC was over 50 µg/mL and the MIC was over 50 µg/mL.

The compound `Fc1ccccc1Sc1c[nH]c2ccc(C(F)(F)F)cc12` [Compound 177D, 3-((2-fluorophenyl)thio)-5-(trifluoromethyl)-1H-indole] yielded an MBC of over 50 µg/mL and an MIC of 12.5 µg/mL (≈ 40.2 µM).

Consider `Fc1ccc2[nH]cc(Sc3ccccc3Br)c2c1` [Compound 177E, 3-((2-bromophenyl)thio)-5-fluoro-1H-indole], for which the MBC was over 50 µg/mL and the MIC was over 50 µg/mL.

Turning to `FC(F)(F)c1ccc2[nH]cc(Sc3ccccc3C(F)(F)F)c2c1` [Compound 177F, 5-(trifluoromethyl)-3-((2-(trifluoromethyl)phenyl)thio)-1H-indole], the MBC was over 50 µg/mL and the MIC turned out to be 6.25 µg/mL (≈ 17.3 µM).

In the case of `CCc1ccccc1Sc1c[nH]c2ccc(C(F)(F)F)cc12` [Compound 177G, 3-((2-ethylphenyl)thio)-5-(trifluoromethyl)-1H-indole], the MBC is over 50 µg/mL and the MIC is over 50 µg/mL.

Compound `OCc1[nH]c2ccc(Br)cc2c1Sc1ccccc1Br` [Compound 177H, (5-bromo-3-((2-bromophenyl)thio)-1H-indol-2-yl)methanol] yielded an MBC of over 50 µg/mL and an MIC of 25 µg/mL (≈ 60.5 µM).
